The list shows a part of the results. Shown are side measurements of this screen, not its main read-out; they come without a call. Most of these compounds were active or inconclusive in the main read-out, so they are no random draw.
Assay: inhibitors of hepatocyte lipid droplet formation, primary screen, imaging, high-throughput imaging, BODIPY stain (AID 1656);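 further: cells counted across two imaged fields per well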
Conditions: AML12 mouse hepatocytes, oleate lipid droplets, measured here: cell count, cytotoxicity flag, at 6.5 µM
Outline: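 Assay system: AML12 hepatocytes (mouse); Probe or stimulus: oleic acid at 100 µM to induce lipid droplet formation; Dosing: compound at 6.5 µM only; Schedule: compound with oleate, overnight; Detection: fluorescence imaging, 20x objective, two fields per well; Measure: % inhibition of lipid droplet signal.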

Row | SMILES | cell count [cells]
1 | COc1ccc(-c2nc(NC(=O)Cn3ccc(C(F)(F)F)n3)sc2C)cc1 | 759
2 | Oc1c(/C=C/C=C/C=Nc2ccccc2)sc(=S)n1Cc1ccccc1 | 650
3 | COc1cc2c(cc1NC(=O)CSc1nc3ccc(C)cc3[nH]1)oc1ccccc12 | 648
4 | CC(C)Oc1ccccc1/C=N/Nc1ccccc1[N+](=O)[O-] | 607
5 | CN(C)S(=O)(=O)c1ccc(C(=O)Nc2nnc(SCc3ccccc3)s2)cc1 | 144
6 | COc1cc(C(=O)N2CCN(c3cccc(C)c3C)CC2)cc(OC)c1OC | 232
7 | CCOC(=O)c1c(C)[nH]c(C(=O)N/N=C/c2ccc(Br)cc2)c1C | 72
8 | O=C(c1nn2c(C(F)(F)F)cc(-c3cccs3)nc2c1Br)N1CCCc2ccccc21 | 651
9 | CC1=C(/C=N/Nc2ccc([N+](=O)[O-])cc2[N+](=O)[O-])C(C)(C)CCC1 | 651
10 | N#Cc1c(NC(=O)/C=C/c2ccco2)sc2c1CCCC2 | 51
11 | Cc1ccc(C(=O)N2CCN(S(=O)(=O)N3CCCCC3)CC2)cc1 | 56
12 | COc1ccc(C)cc1NC(=O)C(Sc1nnc(Nc2cc(C)ccc2OC)s1)c1ccccc1 (configuration not stated) | 660
13 | COc1ccc(C2=NOC(C(=O)NCc3ccc(F)cc3)C2)cc1OC (configuration not stated) | 276
14 | COc1cccc(C(=O)NC2CCCc3c2cnn3-c2cc(C)cc(C)c2)c1 (configuration not stated) | 712
15 | C=CCOc1ccc(/C=N/NC(=O)c2cc3c(OC)cc(OC)cc3[nH]2)cc1 | 829
16 | O=C(OCCN1C(=O)c2cccc3c(N4CCOCC4)ccc(c23)C1=O)c1ccc(Cl)cc1 | 173
17 | COc1ccc(CC(=O)Nc2oc(-c3ccccc3)c(-c3ccccc3)c2C#N)cc1OC | 768
18 | CCc1cc2c(=O)c(-c3nc4ccccc4n3C)c(C)oc2c(CN2CCOCC2)c1O | 724
19 | CCN(CC)S(=O)(=O)c1cc(NC(=O)C(C)OC(=O)c2[nH]c(C)c(C(C)=O)c2C)ccc1C (configuration not stated) | 544
20 | CCOc1cc(Br)c(CC(=O)NC2CCCCCC2)cc1OCC | 804
21 | Cc1coc2cc3oc(=O)cc(C)c3cc12 | 661
22 | CCCCn1c(SCC(=O)Nc2cc(C(F)(F)F)cc(C(F)(F)F)c2)nnc1C(CC)N(C)C (configuration not stated) | 608
23 | COc1ccc(CCN2C(=O)CC(N3CCOCC3)C2=O)cc1OC (configuration not stated) | 716
24 | Cc1ccc(C(C(=O)NC2CCCCC2)N(C(=O)c2csnn2)C2CCCC2)o1 (configuration not stated) | 746
25 | CCN1/C(=C/C=C/c2oc3ccc(-c4ccccc4)cc3[n+]2CC)Oc2ccc(-c3ccccc3)cc21 | 557
26 | Cc1c(C(=O)OCc2ccccc2)[nH]c2c1C(=O)CC(c1ccco1)C2 (configuration not stated) | 229
27 | Cc1c(Cc2ccccc2)sc(/N=C/c2ccc3ccccc3c2)c1C(N)=O | 288
